MIC of clinical C. albicans isolates, CLSI broth microdilution (ranges and time not stated); higher = less susceptible. Call: susceptible or wild type [S] / resistant or non-wild type [R] by CLSI breakpoints or epidemiological cut-offs; intermediate and dose-dependent carry no call here (the paper groups them with resistant). '<=' and '>=' mark each drug's lowest and highest value, inferred; the source prints them plain. Isolates are numbered anew.

Data on 16 test systems can be found in the supplement of paper PMC9927326.

Test in all cases: CLSI broth microdilution.
Compound in one test: OC(Cn1cncn1)(Cn1cncn1)c1ccc(F)cc1F [fluconazole]
Compound in another test: CCC(C)n1ncn(-c2ccc(N3CCN(c4ccc(OCC5COC(Cn6cncn6)(c6ccc(Cl)cc6Cl)O5)cc4)CC3)cc2)c1=O [itraconazole]
Compound in a further test: CCCCCOc1ccc(-c2ccc(-c3ccc(C(=O)N[C@H]4C[C@@H](O)[C@@H](O)NC(=O)[C@@H]5[C@@H](O)[C@@H](C)CN5C(=O)[C@H]([C@@H](C)O)NC(=O)[C@H]([C@H](O)[C@@H](O)c5ccc(O)cc5)NC(=O)[C@@H]5C[C@@H](O)CN5C(=O)[C@H]([C@@H](C)O)NC4=O)cc3)cc2)cc1 [anidulafungin]
Compound in the next test: Nc1[nH]c(=O)ncc1F [flucytosine]
Compound in the next test: CC[C@@H]([C@H](C)O)n1ncn(-c2ccc(N3CCN(c4ccc(OC[C@@H]5CO[C@@](Cn6cncn6)(c6ccc(F)cc6F)C5)cc4)CC3)cc2)c1=O [posaconazole]
Compound in the next test: C[C@@H](c1ncncc1F)[C@](O)(Cn1cncn1)c1ccc(F)cc1F [voriconazole]
Compound in the next test: C[C@@H]1[C@H](O)[C@@H](C)/C=C/C=C/C=C/C=C/C=C/C=C/C=C/[C@H](O[C@@H]2O[C@H](C)[C@@H](O)[C@H](N)[C@@H]2O)C[C@@H]2O[C@](O)(C[C@@H](O)C[C@@H](O)[C@H](O)CC[C@@H](O)C[C@@H](O)CC(=O)O[C@H]1C)C[C@H](O)[C@H]2C(=O)O [amphotericin B]
Compound in a further test: CC[C@H](C)C[C@H](C)CCCCCCCCC(=O)N[C@H]1C[C@@H](O)[C@@H](NCCN)NC(=O)[C@@H]2[C@@H](O)CCN2C(=O)[C@H]([C@H](O)CCN)NC(=O)[C@H]([C@H](O)[C@@H](O)c2ccc(O)cc2)NC(=O)[C@@H]2C[C@@H](O)CN2C(=O)[C@H]([C@@H](C)O)NC1=O [caspofungin]
Compound in a further test: CCCCCOc1ccc(-c2cc(-c3ccc(C(=O)N[C@H]4C[C@@H](O)[C@@H](O)NC(=O)[C@@H]5[C@@H](O)[C@@H](C)CN5C(=O)[C@H]([C@H](O)CC(N)=O)NC(=O)[C@H]([C@H](O)[C@@H](O)c5ccc(O)c(OS(=O)(=O)O)c5)NC(=O)[C@@H]5C[C@@H](O)CN5C(=O)[C@H]([C@@H](C)O)NC4=O)cc3)no2)cc1 [micafungin]

As to “Candida albicans isolate 216 (Erg11p: D153E, Fur1p: WT, Tac1p: N896S)”, the MIC with fluconazole is 0.5 mg/L [S]; with itraconazole, 0.06 mg/L [S]; with anidulafungin, 0.12 mg/L [S]; with flucytosine, at most 0.06 mg/L [S]; with posaconazole, 0.03 mg/L [S]; in the test with voriconazole it was at most 0.008 mg/L [S]. Also, the MIC with amphotericin B came to 0.5 mg/L [S]; with caspofungin, 0.06 mg/L [S]; in the test with micafungin it was 0.015 mg/L [S].
For “Candida albicans isolate 217 (Erg11p: E266D, Fur1p: WT, Tac1p: N896S,I558V,A377V,F189S,N174D,M170I,K87N)”, the MIC is 4 µg/mL in the test with fluconazole; 0.12 mg/L [S] with itraconazole; at most 0.015 mg/L [S] with anidulafungin; 0.25 mg/L [S] with flucytosine; 0.06 mg/L [S] with posaconazole; 0.5 µg/mL with voriconazole. In addition, the MIC in the test with amphotericin B worked out at 0.5 mg/L [S]; in the test with caspofungin it was 0.03 mg/L [S]; in the test with micafungin it was 0.015 mg/L [S].
With “Candida albicans isolate 218 (Erg11p: WT, Fur1p: WT, Tac1p: N896S)”, the MIC in the test with fluconazole is 0.25 mg/L [S]; with itraconazole, at most 0.015 mg/L [S]; with anidulafungin it was at most 0.015 mg/L [S]; with flucytosine, at most 0.06 mg/L [S]; in the test with posaconazole, 0.015 mg/L [S]; in the test with voriconazole, at most 0.008 mg/L [S]. The values for the MIC with amphotericin B, in the test with caspofungin and in the test with micafungin were 0.5 mg/L [S], 0.015 mg/L [S] and at most 0.008 mg/L [S], respectively.
As to “Candida albicans isolate 219 (Erg11p: V437I, Fur1p: WT, Tac1p: N896S,A377V,F189S,N174D,M170I,K87N)”, the minimal inhibitory concentration (MIC) was 0.5 mg/L [S] with fluconazole; 0.03 mg/L [S] with itraconazole; 0.06 mg/L [S] with anidulafungin; at most 0.06 mg/L [S] with flucytosine; 0.015 mg/L [S] with posaconazole; at most 0.008 mg/L [S] in the test with voriconazole. For the same test system, the MIC with amphotericin B worked out at 0.5 mg/L [S]; with caspofungin, 0.03 mg/L [S]; with micafungin it was 0.015 mg/L [S].
For “Candida albicans isolate 220 (Erg11p: Y132H,T123I, Fur1p: R101C, Tac1p: WT)”, the minimal inhibitory concentration (MIC) was 4 µg/mL with fluconazole; 0.12 mg/L [S] in the test with itraconazole; at most 0.015 mg/L [S] with anidulafungin; at most 0.06 mg/L [S] with flucytosine; 0.06 mg/L [S] with posaconazole; 0.5 µg/mL with voriconazole. The results for the MIC in the test with amphotericin B, with caspofungin and in the test with micafungin were 0.5 mg/L [S], 0.015 mg/L [S] and 0.015 mg/L [S], respectively.
As for “Candida albicans isolate 221 (Erg11p: D153E, Fur1p: WT, Tac1p: N896S)”, the MIC is 0.5 mg/L [S] with fluconazole; 0.03 mg/L [S] in the test with itraconazole; 0.03 mg/L [S] with anidulafungin; at most 0.06 mg/L [S] with flucytosine; 0.015 mg/L [S] in the test with posaconazole; at most 0.008 mg/L [S] in the test with voriconazole. Also, the MIC with amphotericin B was 0.25 mg/L [S]; in the test with caspofungin, 0.015 mg/L [S]; with micafungin, at most 0.008 mg/L [S].
Take “Candida albicans isolate 222 (Erg11p: E266D, Fur1p: WT, Tac1p: I558V,A377V,F189S,N174D,M170I,K87N)”: the MIC is 0.25 mg/L [S] with fluconazole; 0.06 mg/L [S] with itraconazole; 0.06 mg/L [S] with anidulafungin; at most 0.06 mg/L [S] with flucytosine; 0.03 mg/L [S] with posaconazole; at most 0.008 mg/L [S] in the test with voriconazole. Moreover, the MIC with amphotericin B worked out at 0.25 mg/L [S]; with caspofungin it was 0.06 mg/L [S]; with micafungin it was 0.015 mg/L [S].
“Candida albicans isolate 223 (Erg11p: G465S,Y132H, Fur1p: R101C, Tac1p: R693K)”: the MIC with fluconazole was 64 mg/L [R]; with itraconazole it was 1 mg/L [R]; with anidulafungin it was at most 0.015 mg/L [S]; in the test with flucytosine, 0.25 mg/L [S]; with posaconazole, 0.5 mg/L [R]; in the test with voriconazole, at least 8 mg/L [R]. Moreover, the MIC with amphotericin B stood at 0.25 mg/L [S]; with caspofungin it was 0.03 mg/L [S]; with micafungin, 0.03 mg/L [S].
With “Candida albicans isolate 224 (Erg11p: V437I,E266D, Fur1p: WT, Tac1p: S937L,I895T,L695F,I558V,F189S,L131I)”, the MIC in the test with fluconazole is 0.25 mg/L [S]; in the test with itraconazole, at most 0.015 mg/L [S]; with anidulafungin, at most 0.015 mg/L [S]; with flucytosine it was at most 0.06 mg/L [S]; in the test with posaconazole, 0.015 mg/L [S]; with voriconazole it was at most 0.008 mg/L [S]. Moreover, the results for the MIC with amphotericin B, with caspofungin and in the test with micafungin were 0.25 mg/L [S], 0.03 mg/L [S] and at most 0.008 mg/L [S], respectively.
“Candida albicans isolate 225 (Erg11p: V437I,E266D, Fur1p: WT, Tac1p: S937L,I895T,L695F,I558V,F189S)”: the MIC in the test with fluconazole was 0.5 mg/L [S]; with itraconazole, at most 0.015 mg/L [S]; with anidulafungin it was 0.03 mg/L [S]; in the test with flucytosine it was at most 0.06 mg/L [S]; with posaconazole, 0.015 mg/L [S]; with voriconazole it was at most 0.008 mg/L [S]. For the same test system, the results for the MIC with amphotericin B, in the test with caspofungin and with micafungin were 0.5 mg/L [S], 0.03 mg/L [S] and 0.015 mg/L [S], respectively.
For the test system “Candida albicans isolate 226 (Erg11p: WT, Fur1p: WT, Tac1p: N896S)”, the MIC is 0.5 mg/L [S] in the test with fluconazole; at most 0.015 mg/L [S] in the test with itraconazole; 0.03 mg/L [S] with anidulafungin; at most 0.06 mg/L [S] with flucytosine; 0.015 mg/L [S] with posaconazole; at most 0.008 mg/L [S] with voriconazole. The MIC with amphotericin B was found to be 0.25 mg/L [S]; with caspofungin it was 0.015 mg/L [S]; with micafungin, 0.015 mg/L [S].
Take “Candida albicans isolate 227 (Erg11p: E266D,D153E,G129A, Fur1p: WT, Tac1p: N896S,R869Q,L695F,I558V,A377V,E371K,F189S,M170V,L131I)”: the MIC with fluconazole was 1 mg/L [S]; in the test with itraconazole, 0.03 mg/L [S]; with anidulafungin it was at most 0.015 mg/L [S]; with flucytosine, at most 0.06 mg/L [S]; with posaconazole, 0.03 mg/L [S]; with voriconazole, at most 0.008 mg/L [S]. Also, the results for the minimal inhibitory concentration (MIC) in the test with amphotericin B, with caspofungin and in the test with micafungin were 0.5 mg/L [S], 0.03 mg/L [S] and 0.015 mg/L [S], respectively.
Turning to “Candida albicans isolate 228 (Erg11p: K342R,E266D, Fur1p: WT, Tac1p: I558V,A377V,F189S,N174D,M170I,K87N)”, the MIC with fluconazole was at least 256 mg/L [R]; in the test with itraconazole it was 8 mg/L [R]; in the test with anidulafungin, 0.12 mg/L [S]; with flucytosine it was at most 0.06 mg/L [S]; with posaconazole, at least 8 mg/L [R]; with voriconazole, at least 8 mg/L [R]. Besides, the values for the minimal inhibitory concentration (MIC) with amphotericin B, in the test with caspofungin and with micafungin were 0.5 mg/L [S], 0.03 mg/L [S] and 0.015 mg/L [S], respectively.
On to “Candida albicans isolate 229 (Erg11p: V488I,E266D, Fur1p: WT, Tac1p: N896S)”, for which the MIC with fluconazole is 0.25 mg/L [S]; in the test with itraconazole, 0.03 mg/L [S]; in the test with anidulafungin it was 0.03 mg/L [S]; in the test with flucytosine it was at most 0.06 mg/L [S]; in the test with posaconazole, 0.015 mg/L [S]; with voriconazole, at most 0.008 mg/L [S]. Moreover, the MIC with amphotericin B is 0.5 mg/L [S]; with caspofungin, 0.03 mg/L [S]; with micafungin, at most 0.008 mg/L [S].
As for “Candida albicans isolate 230 (Erg11p: K143R,Y132H,T123I, Fur1p: R101C, Tac1p: WT)”, the minimal inhibitory concentration (MIC) with fluconazole was 32 mg/L [R]; with itraconazole, 0.5 mg/L [R]; with anidulafungin, at most 0.015 mg/L [S]; in the test with flucytosine it was 0.5 mg/L [S]; with posaconazole, 0.12 mg/L [R]; with voriconazole, 2 mg/L [R]. Besides, the MIC in the test with amphotericin B was 0.5 mg/L [S]; with caspofungin, 0.03 mg/L [S]; with micafungin, at most 0.008 mg/L [S].
In the case of “Candida albicans isolate 231 (Erg11p: WT, Fur1p: WT, Tac1p: I558V,A377V,F189S,N174D,M170I,K87N)”, the MIC in the test with fluconazole is at most 0.12 mg/L [S]; with itraconazole, at most 0.015 mg/L [S]; with anidulafungin, 0.03 mg/L [S]; in the test with flucytosine, at most 0.06 mg/L [S]; in the test with posaconazole, at most 0.008 mg/L [S]; with voriconazole, at most 0.008 mg/L [S]. The figures for the minimum inhibitory concentration (MIC) in the test with amphotericin B, in the test with caspofungin and with micafungin were 0.5 mg/L [S], 0.03 mg/L [S] and 0.015 mg/L [S], respectively.

By MIC is commonly meant the lowest concentration found to suppress growth.
